Experimental findings from patent publication US20250099622A1, “COMPOSITIONS AND METHODS FOR EXPRESSING THERAPEUTICS” (priority 2022, published 2025) are described below.

The term Kd denotes a measure of binding affinity in units of concentration.

Assay [1] addresses T1, Human NPR-B (R&D system) (human, UniProt P20594 23-458, limits assumed).
T1 construct: Bought protein immobilised on the Biacore chip; also called NBR-B; natriuretic peptide receptor B
T1 sequence (looked up): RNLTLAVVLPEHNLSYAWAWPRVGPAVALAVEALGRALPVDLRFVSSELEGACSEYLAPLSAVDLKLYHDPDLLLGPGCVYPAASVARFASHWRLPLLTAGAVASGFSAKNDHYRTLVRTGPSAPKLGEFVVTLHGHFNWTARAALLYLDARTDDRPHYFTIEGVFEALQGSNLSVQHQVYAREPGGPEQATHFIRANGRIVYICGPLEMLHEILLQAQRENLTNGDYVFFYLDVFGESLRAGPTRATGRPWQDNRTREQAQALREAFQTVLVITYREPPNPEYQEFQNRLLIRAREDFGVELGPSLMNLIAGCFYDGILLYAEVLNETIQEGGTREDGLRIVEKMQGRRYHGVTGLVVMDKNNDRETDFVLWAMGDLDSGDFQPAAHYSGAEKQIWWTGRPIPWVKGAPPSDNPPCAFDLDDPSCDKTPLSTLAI
As to the kind of experiment: SPR (Biacore), drawn table 'Kinetic affinity comparison'. As to the method: (§1) Kinetic parameters were calculated assuming a simple 1:1 (Langmuir) binding. […] All SPR analysis was performed on a BIAcore 3000 system using series CM5 sensor chips. Data processing and analysis were performed using BIAevaluation software. All sensorgrams were double referenced by subtracting the response on a reference flow cell and a blank sample. Human NPR-B (R&D system) was covalently attached to a CM5 chip via amine coupling. […] Kinetic parameters were calculated assuming a simple 1:1 (Langmuir) binding. […] All SPR analysis was performed on a BIAcore 3000 system using series CM5 sensor chips. Data processing and analysis were performed using BIAevaluation software. All sensorgrams were double referenced by subtracting the response on a reference flow cell and a blank sample. Human NPR-B (R&D system) was covalently attached to a CM5 chip via amine coupling. […] Kinetic parameters were calculated assuming a simple 1:1 (Langmuir) binding. […] All SPR analysis was performed on a BIAcore 3000 system using series CM5 sensor chips. Data processing and analysis were performed using BIAevaluation software. All sensorgrams were double referenced by subtracting the response on a reference flow cell and a blank sample. Human NPR-B (R&D system) was covalently attached to a CM5 chip via amine coupling.
Background: SPR reads the build-up and loss of mass on a sensor chip optically.

Assay [2] deals with T1, Human NPR-B (R&D system). As to the kind of experiment: SPR (Biacore 3000), human NPR-B amine-coupled to CM5 chip, 1:1 Langmuir fit. As to the method:
as §1

The subject of assay [3] is NIH3T3 cells (cGMP secreted). As to the kind of experiment: EC50 for CNP-Fc constructs, cGMP ELISA of NIH3T3 supernatant. Format: cell-based. The settings on record: NIH3T3, 30 minutes, 1.8 mM IBMX, cGMP secreted by the cells; FIG. 25B. As to the method: EC50 for CNP-Fc described herein were measured by ELISA. 2.5E+05 NIH3T3 cells/well were plated. […] After 30 minutes, supernatant was collected for cGMP determined via ELISA. FIG. 25A illustrates a standard curve of cGMP.
A general note: An ELISA detects its analyte on a solid surface through an enzyme-linked reagent.

B1: AMI263 (Fc4-(G4S)4-CNP36) (Fc fusion)
chain: [sequence of human IgG4 Fc with S228P (EU numbers) and a few adjoining residues omitted]GGGGSGGGGSGGGGSGGGGSEHPNARKYKGANKKGLSKGCFGLKLDRIGSMSGLGC
notes: Human IgG4 Fc, then (G4S)4, then CNP36; also called Fc4-CNP36; FC4-CNP
B1: the “Comparison (kinetic affinity relative to Control P22)” value in assay [1] was 103 x. This molecule also returned a Kd in assay [2] of 0.358 pM.

B2: Aflibercept-Fc4-CNP36: CNP fusion (Fc4-CNP36) with VEGF inhibitor (Aflibercept); probably the protein of AMI312, SEQ ID NO: 139 (protein)
chain: SDTGRPFVEMYSEIPEIIHMTEGRELVIPCRVTSPNITVTLKKFPLDTLIPDGKRIIWDSRKGFIISNATYKEIGLLTCEATVNGHLYKTNYLTHRQTNTIIDVVLSPSHGIELSVGEKLVLNCTARTELNVGIDFNWEYPSSKHQHKKLVNRDLKTQSGSEMKKFLSTLTIDGVTRSDQGLYTCAASSGLMTKKNSTFVRVHEKDKRV[sequence of human IgG4 Fc with S228P (EU numbers) omitted]GGGGSGGGGSGGGGSGGGGSEHPNARKYKGANKKGLSKGCFGLKLDRIGSMSGLGC
As for B2, in assay [3], the “EC50 values (rank order)” value is reported as “CNP-22 ≡Fc4-CNP36>Aflibercept-Fc4-CNP36>Fc1-CNP36>>Fc4-CNP22”.

B3: AMI087 (CNP36-(G4S)4-Fc1) (Fc fusion)
chain: EHPNARKYKGANKKGLSKGCFGLKLDRIGSMSGLGCGGGGSGGGGSGGGGSGGGGS[sequence of human IgG1 Fc omitted]
notes: CNP36, then (G4S)4, then human IgG1 Fc; also called CNP36-F1; CNP36-4XGGGS-FC1
Turning to B3, binding in assay [2] was characterised by a dissociation constant (Kd) of 419000 pM.

B4: AMI088 (Fc1-(G4S)4-CNP36) (Fc fusion)
chain: [sequence of human IgG1 Fc omitted]GGGGSGGGGSGGGGSGGGGSEHPNARKYKGANKKGLSKGCFGLKLDRIGSMSGLGC
notes: Human IgG1 Fc, then (G4S)4, then CNP36; Purified on protein A from HEK293 culture; also called Fc1-CNP36; FC1-CNP
The molecule B4 yielded a Kd in assay [2] of 0.695 pM.
